# Out of some 340,000 compounds screened, about 6,900 (2%) were called active. Rule as the data show it: active = inhibition above about 30%; inactive = below that, where a call was filed. The list shows a part of the results, in another mix than the full data. Entries without a call were filed so in the source. More than one record can exist for a structure, and the calls need not agree.
# Molecular target: D(2) dopamine receptor (Homo sapiens) (UniProt P14416)
# Experiment: HTS Assay for Allosteric Antagonists of the Human D2 Dopamine Receptor: Primary Screen for Antagonists; also: 0% is about no effect
# Settings: HEK293 TREx D2 cells, calcium flux, dopamine EC80; at 10 µM; stronger effect = higher value
# How it was run: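 Tetracycline-induced HEK293 TREx cells expressing D2 receptor forced-coupled to calcium signalling, loaded with no-wash calcium dye. Compounds added and calcium flux read 180 s, then dopamine added at EC80 and read a further 180 s.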
# Sequence of UniProt P14416 (P14416 whole entry, looked up): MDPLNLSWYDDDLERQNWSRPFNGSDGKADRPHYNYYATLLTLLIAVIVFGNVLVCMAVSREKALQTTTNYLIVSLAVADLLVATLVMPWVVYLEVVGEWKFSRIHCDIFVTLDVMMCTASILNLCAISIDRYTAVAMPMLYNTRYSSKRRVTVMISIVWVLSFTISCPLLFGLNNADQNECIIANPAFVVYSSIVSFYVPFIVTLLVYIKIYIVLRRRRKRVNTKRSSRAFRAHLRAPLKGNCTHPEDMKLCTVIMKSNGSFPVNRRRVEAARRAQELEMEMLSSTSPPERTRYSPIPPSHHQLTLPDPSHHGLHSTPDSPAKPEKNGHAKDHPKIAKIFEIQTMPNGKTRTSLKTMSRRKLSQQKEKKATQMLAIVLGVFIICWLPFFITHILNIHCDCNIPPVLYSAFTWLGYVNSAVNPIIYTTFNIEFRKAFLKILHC
row,SMILES,inhibition
1,Cc1cc(C)c(C)c(OCCNCc2ccccc2)c1,active: 75.1%
2,COc1ccccc1CNC(=O)CS(=O)Cc1nc(-c2ccc(OC)c(OC)c2)oc1C (stereo unspecified),-12.8%
3,CCCNCC(O)COc1ccccc1C(=O)CCc1ccccc1 (stereo unspecified),active: 35.1%
4,Cc1ccc(CCNC(=O)c2ccc(CSCc3ccccc3C)o2)cc1,26.6%
5,CCC1CN(C(=O)N2CCC(C(=O)O)CC2)c2cc(C)ccc2O1 (stereo unspecified),11.4%
6,Cc1ccc2nc(-c3ccc(NC(=O)COc4ccc(Cl)c(C)c4)cc3)sc2c1,5.58%
7,CCN(Cc1ccccc1)C(=O)C1CCN(S(=O)(=O)c2c(C)noc2/C=C/c2ccc(C)cc2)CC1,14.2%
8,COc1ccc(Nc2cc(C)c3cc(NC(=O)Cc4c(F)cccc4Cl)ccc3n2)cc1,10.2%
9,CCn1c(CN2CCCCC2)nc2cc(NC(=O)c3cccc([N+](=O)[O-])c3)ccc21,25.8%
10,Cc1cc(C)c[n+](-c2nc3ccccc3nc2C(=C=[N-])C#N)c1,active: 34.3%
11,COc1cc(-c2nc(C(N)=O)c3c(n2)n(-c2cccc(C)c2)c(=O)n3C)cc(OC)c1OC,-5.4%
12,N#Cc1cccc(NC(=O)C2CCN(c3nc(-c4ccc(Cl)cc4)no3)CC2)c1,-17.9%
13,Cc1ccc(CCNC(=O)CSCc2nc(-c3ccc(C)cc3)oc2C)cc1,0.019%
14,COC(=O)c1ccccc1NC(=O)c1ccc(=O)n(Cc2cccc(C)c2)c1,2.46%
15,Cc1ccc(CNC(=O)c2nn(C)c3c2CSc2ccc(C)cc2-3)cc1,-0.865%
16,CCOc1ccc(-c2nnc(SCC(=O)Nc3cc(C)ccc3OC)o2)cc1,6.5%
17,CC(C)c1ccc(NC(=O)Cn2c3ncccc3c(=O)n2-c2ccccc2)cc1,5.29%
18,CCn1c(=O)n(CC)c2cc(N3CCCC3)c(NC(=O)Nc3cc(C)cc(C)c3)cc21,11.5%
19,COc1ccccc1N1CCN(C(=O)c2ccc(Nc3nc4ccccc4n4nnnc34)cc2)CC1,14.9%
20,COc1ccc(S(=O)(=O)c2c(O)c(C)cc(NC(=O)c3ccccc3)c2C(C)C)cc1,-10%
21,Cc1cccc(-c2nnc(SCC(=O)N3CCCCC3)o2)c1,-19%

row,SMILES,inhibition
1,O=C(Nc1ccccc1F)c1oc2ccccc2c1NC(=O)c1c(F)cccc1F,15.8%
2,Cc1cccn2c(=O)cc(COc3cccc(NC(=O)c4cccc(Cl)c4)c3)nc12,3.88%
3,CNc1nc2c(c(=O)n(C)c(=O)n2C)n1CC(O)COc1ccc(OC)cc1 (stereo unspecified),11.8%
4,COc1ccc(NS(=O)(=O)c2ccc(-n3cccn3)cc2)cc1OC,-3.67%
5,Cn1nc(C(=O)NCCc2ccc(Cl)cc2)c2c1-c1ccccc1SC2,-0.553%
6,CN(C(=O)c1cc2nc(-c3ccc4c(c3)OCO4)cc(C(F)(F)F)n2n1)c1ccc(OC(F)(F)F)cc1,-8.97%
7,CCN(Cc1ccccc1)C(=O)Cn1c(=O)n(-c2cccc(C)c2)c(=O)c2c1c1cc(OC)ccc1n2C,-8.56%
8,CC(C)c1ccc(OCC(=O)NCC(c2ccc(Cl)cc2)N2CCOCC2)cc1 (stereo unspecified),-14%
9,Cc1nc2c(C(=O)NCCc3ccc(Cl)cc3)cnn2c(C)c1Cc1ccc(F)cc1,-0.273%
10,COc1ccc(N2C(N)=C(C#N)C(c3cc(CN4CCOCC4)cs3)C3=C2CCCC3=O)cc1 (stereo unspecified),15.1%
11,CC(C)NC(=O)C1CCN(C(=O)c2cnn(-c3ccccc3)c2-n2cccc2)CC1,4.57%
12,Cc1ccc(NS(=O)(=O)c2ccc3c(c2)C(C(C)C)C(=O)N3)cc1C (stereo unspecified),-3.18%
13,Cn1c(=O)cc(SCC(=O)N2CCN(Cc3ccc4c(c3)OCO4)CC2)c2ccccc21,active: 40.9%
14,CCN(CCCNC(=O)c1nn(-c2ccc(OC)c(Cl)c2)c(=O)c2c1c1ccccc1n2C)c1ccccc1,1.99%
15,CC1CCN(C(=O)Cn2c(SCC(=O)Nc3ccc(F)cc3)nc3ccccc32)CC1,6.1%
16,Cc1ccc(CN2CCN(C3CCN(S(=O)(=O)N(C)C)CC3)C(=O)C2=O)cc1,2.11%
17,COc1ccc(OC)c(CNC(=O)CSc2c3c(nc4cc(Cl)ccc24)CCCC3)c1,4.54%
18,Cc1cccc(NC(=O)Cn2c(=O)c3cccn3c3ccccc32)c1C,-14.1%
19,COc1ccc(-c2csc(-c3c(N)c(C(=O)c4ccccc4)n4ccccc34)n2)cc1OC,4.54%
20,COc1ccccc1N1CCN(C(=O)CSc2nc3ccccc3nc2Cc2ccc(C)cc2)CC1,3.21%
21,COc1cc(NS(=O)(=O)c2cc(Br)cc3c2N(C(=O)C2CC2)CC3)cc(OC)c1,15.3%

row,SMILES,inhibition
1,O=C(NCCC1=CCCCC1)c1ccc2c(c1)N(Cc1ccccc1)C(=O)c1ccccc1S2=O (stereo unspecified),-13.3%
2,CCn1c(SCC(=O)Nc2c(C)cccc2C)nnc1-c1nonc1NC(C)=O,9.24%
3,Cc1ccc(C(=O)N2CCCCC2CCN2CCCCC2)cc1 (stereo unspecified),-25.4%
4,COc1ccccc1CN1CC(C(=O)NCc2cccc(Cl)c2)CCC1=O (stereo unspecified),active: 36.1%
5,CCc1nn(CC(=O)NCCOC)c(=O)c2cc3cc(F)ccc3n12,-5.94%
6,O=C(Nc1cccc(C(F)(F)F)c1)Nc1ccc2snnc2c1,-3.33%
7,CCOC(=O)c1c(NC(=O)c2ccc(S(=O)(=O)N(CC)CC)cc2)sc2c1CCCCC2,2.87%
8,CCCN1CC23C=CC(O2)C(C(=O)O)C3C1=O (stereo unspecified),active: 47.6%
9,Cc1cc(S(=O)(=O)Nc2ccc(O)c(Sc3nc4ccccc4s3)c2)ccc1Cl,5.83%
10,CCc1ccc(CN(Cc2cn[nH]c2-c2ccc(OC)cc2)C(=O)Nc2ccc(Br)cc2)cc1,-3.03%
11,CN(C)c1ccc(C(CNS(=O)(=O)c2ccc(F)cc2F)N2CCOCC2)cc1 (stereo unspecified),-3.06%
12,Cc1ccc(CCNC(=O)CN(c2ccc(C(C)C)cc2)S(=O)(=O)c2c(C)nn(C)c2C)cc1,-2.25%
13,CCN(CC)C(=O)CSc1nc2cc3c(cc2c(=O)n1CCCC(=O)NCc1ccc(OC)cc1)OCO3,24.3%
14,CCCNC(=O)N1CCCN(S(=O)(=O)c2ccc3c(ccn3CC)c2)CC1,-1.26%
15,Cc1c(Cl)cccc1-c1ccc(/C=C(\C#N)c2nc3ccccc3[nH]2)o1,8.28%
16,Oc1ccc(CCNc2c3ccccc3nc3ccccc23)cc1O,active: 91.2%
17,CCCCOc1cccc(C(=O)N2CCN(CCc3ccncc3)CC2)c1,3.19%
18,CCN(CC)c1ccc(NS(=O)(=O)c2cc(-c3cc(C)no3)ccc2C)c(C)c1,0.0331%
19,COc1cc(C(=O)N2CCN(C(=O)COc3cccc(C)c3)CC2)cc(OC)c1OC,16.1%

# Source: PubChem BioAssay AID485344 (National Center for Advancing Translational Sciences (NCATS), 2010)
